Assay results taken from PMC4336329 (PLoS ONE, 2015).
The whole screen tested about 310,000 compounds, of which about 2,200 (0.71%) showed an effect of 50% or more. The effect is printed as a negative number. The list shows a part of the results.

biological target: human ether-à-go-go-related gene (hERG) potassium channel (human, UniProt Q12809); test: primary screen, population patch clamp on CHO cells stably expressing hERG
Sequence (Q12809 whole entry, looked up): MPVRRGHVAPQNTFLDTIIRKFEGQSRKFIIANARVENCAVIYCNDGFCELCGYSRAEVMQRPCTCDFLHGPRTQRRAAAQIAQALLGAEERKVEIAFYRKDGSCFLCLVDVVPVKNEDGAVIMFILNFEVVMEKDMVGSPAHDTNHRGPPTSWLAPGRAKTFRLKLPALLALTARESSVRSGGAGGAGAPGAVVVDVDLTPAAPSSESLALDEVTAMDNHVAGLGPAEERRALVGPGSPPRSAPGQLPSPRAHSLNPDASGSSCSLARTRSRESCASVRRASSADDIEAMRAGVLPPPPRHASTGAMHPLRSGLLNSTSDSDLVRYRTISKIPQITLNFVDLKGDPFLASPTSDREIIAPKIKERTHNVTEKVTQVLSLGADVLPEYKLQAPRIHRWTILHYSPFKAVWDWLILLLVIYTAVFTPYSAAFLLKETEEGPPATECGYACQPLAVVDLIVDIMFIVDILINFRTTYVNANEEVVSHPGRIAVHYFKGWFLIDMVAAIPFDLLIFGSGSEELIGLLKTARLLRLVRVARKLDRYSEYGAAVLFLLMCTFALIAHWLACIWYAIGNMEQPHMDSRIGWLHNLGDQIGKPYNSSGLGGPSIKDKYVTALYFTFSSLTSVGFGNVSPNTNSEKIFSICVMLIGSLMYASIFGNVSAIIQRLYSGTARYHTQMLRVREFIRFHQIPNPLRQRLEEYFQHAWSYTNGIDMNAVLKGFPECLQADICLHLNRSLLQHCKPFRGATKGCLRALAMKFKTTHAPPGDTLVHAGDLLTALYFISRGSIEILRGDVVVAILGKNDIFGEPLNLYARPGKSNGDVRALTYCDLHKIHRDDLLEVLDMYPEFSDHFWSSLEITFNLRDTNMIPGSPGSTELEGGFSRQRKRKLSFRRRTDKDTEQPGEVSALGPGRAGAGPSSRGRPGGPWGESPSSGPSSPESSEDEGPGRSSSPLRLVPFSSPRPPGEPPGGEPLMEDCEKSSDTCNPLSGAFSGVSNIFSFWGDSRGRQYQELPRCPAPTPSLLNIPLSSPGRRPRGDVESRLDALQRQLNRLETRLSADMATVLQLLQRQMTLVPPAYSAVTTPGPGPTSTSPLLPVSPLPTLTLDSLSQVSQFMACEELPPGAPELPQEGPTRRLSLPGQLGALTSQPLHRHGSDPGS

Structure (SMILES)	hERG current change (%, negative = inhibition) at 1uM [%]
Cc1c(-c2ccccc2)[n+](=O)c2c(n1[O-])CCCCC2	11.2
CCn1cc(C(=O)OCC(=O)c2cc(C)n(-c3ccccc3F)c2C)c(=O)c2ccc(C)nc21	1.48
Cc1ccc(C(=O)NCCc2nnc3ccc(SCC(=O)N4CCCC4)nn23)cc1	9.81
O=C(NCc1ccon1)C1CCC(=O)N(CCc2ccc(Cl)cc2)C1 (centres unmarked)	6.81
CC(=O)N1CCc2cc(S(=O)(=O)N3CCc4ccccc4C3)ccc21	10.5
Cc1ccc(OCC(=O)NNC(=O)c2ccccc2OCc2c(C)noc2C)cc1	4.63
CC(C)Oc1ccc(C(CC(=O)O)n2cnnn2)cc1 (centres unmarked)	20.6
O=C(CCCCC(=O)N1CCOCCOCCOCC1)OCc1ccccc1	17.7
CCOC(=O)c1c(O)cc(C)[nH]c1=O	13.9
COc1cccc(-c2noc(Cn3nc(C(=O)O)c4ccccc4c3=O)n2)c1	10.5
CC1=NN(C(=O)COc2cc(C)ccc2C(C)C)C(O)(c2ccccc2)C1 (centres unmarked)	15
CCOC(=O)C(Cc1c[nH]c2ccccc12)NC(=O)CNC(C)=O (centres unmarked)	-3.07
CCOc1ccc(NS(=O)(=O)c2ccc(C(=O)N3CCN(C(C)=O)CC3)cc2)cc1	6.49
O=C1C2CCCCC2C(=O)N1c1ccc(S(=O)(=O)Nc2ncccn2)cc1 (centres unmarked)	2.1
C=CCS/C(=N\n1cnc2ccccc2c1=O)N1CCCCC1	-16.2
CN(c1ccccc1C(N)=O)S(=O)(=O)c1ccccc1	11.2
Cl.O=C(Cc1ccccc1)NCCN1CCCC1	9.45
Cc1ccccc1C(=O)OC(C)CN1CCN(C)CC1.Cl (centres unmarked)	0.964
Cc1cc(=O)n2nc(N3CCCC(C(=O)NCc4ccccc4C)C3)sc2n1 (centres unmarked)	7.13
C=CCNC(=O)NC(=O)COC(=O)/C=C/c1cccc([N+](=O)[O-])c1	7.33
C=CCn1c2ccccc2c2nnc(SCc3ccc4nonc4c3)nc21	1.51
CCc1cccc(C)c1NC(=O)Cn1c(NCCO)nc2ccccc21	-4.42

Structure (SMILES)	hERG current change (%, negative = inhibition) at 1uM [%]
CCCCNC1C(CC)C(CCC)C(C#N)(C#N)C1(C#N)C#N (centres unmarked)	0.734
O=C(O)CCN=Cc1c(O)c2ccccc2oc1=O	5.86
Cc1ccc(NC(=O)N/C=C/c2ccco2)cc1C	-1.07
C/C(=C/CCC(C)[C@H]1CC[C@@]2(C)C3=C(CC[C@]12C)[C@@]1(C)CCC(=O)C(C)(C)[C@@H]1CC3)C(=O)O (some centres unmarked)	19.3
COc1cc(Cl)cc(C(=O)O)c1OCC(=O)O	4.19
Cc1ccc(-n2c(SCc3cc(=O)n4ccsc4n3)nnc2-c2cccnc2)c(C)c1	-11.7
Cc1ccc(C(C)C)c(OCCNC(=O)c2ccccc2O)c1	9.71
COC(=O)CCC(=O)NNC(=O)c1ccc([N+](=O)[O-])cc1	19.8
CCc1ccccc1N1C(=O)c2ccccc2S1(=O)=O	3.45
COc1ccccc1NC1=NCC(=O)N1Cc1ccccc1	7.09
CCOC(=O)N1CCN(S(=O)(=O)c2c(C(=O)N3CCCCC3)c(C)n(C)c2C)CC1	6.25
Cl.OCCN(CC#CC(O)(c1ccccc1)C1CCCC1)CCO (centres unmarked)	9.86
CCCCn1c(=O)[nH]c(=O)c2c1nc(-c1ccccn1)n2CC	9.48
COc1ccc(NC(=O)CSc2ccccc2)cc1S(=O)(=O)N1CCCCC1	9.2
OC1(c2ccc(Cl)cc2)CN(c2ccccc2)C2=[N+]1CCS2.[Br-] (centres unmarked)	-3.19
CN(C(=O)CC1C(=O)NCCN1Cc1cccc(F)c1F)C1CCOCC1 (centres unmarked)	12.8
CCCOc1ccc(Br)cc1CSC(=N)N.Cl	2
O=C(CNC(=O)c1cccc(F)c1)N/N=C/c1cccc([N+](=O)[O-])c1	-7.35
O=C(NCC(=O)N1CCCC1C(=O)O)OC1CCCCC1 (centres unmarked)	8.48
O=C(NC1CCCCC1)C1CCN(S(=O)(=O)c2cccc3cccnc23)CC1	9.3
CCc1ccc(N(CC)C(=O)Cc2c(C(=O)O)n(C)c3ccccc23)cc1	15.8
Cc1ccc(Cc2c(C)nc3nc(SCC(=O)NCCCN4CCCC4)nn3c2C)cc1	5.57
